{
  "source": "PubChem BioAssay AID1347417",
  "about": "(National Center for Advancing Translational Sciences (NCATS), 2020)",
  "note": "The campaign covered roughly 120,000 compounds. About 5,300 (4.4%) were called active. The inconclusive results got no clear call from the source; some entries with a clear call stand among them for comparison. Calls follow the shape of the dose curve; as a rule, active = well fitted inhibition curve with a large enough effect; inconclusive = small, poorly fitted or top-dose-only effect; inactive = no such curve, though single readings can be large or run the other way. A potency beside an inconclusive call is a rough fit, not a confirmed value. Potency is read from the fitted curve at half-maximal effect; tags tell the direction and shape of the fitted curve.",
  "data": [
    {"test": "qHTS Primary assay for Inhibitors of Plasmodium falciparum Dd2 growth in vitro; also: nearly all actives have a fitted effect of over 65% in size;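 as to activity, negative = inhibition: plate controls were DMSO vehicle for no effect and reference drug for full effect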", "conditions": "P. falciparum Dd2 growth, SYBR Green, 72 h; activity, negative = inhibition: at 28.9 µM (top of the series) unless noted; series mostly up to 28.9 µM", "how_it_was_run": "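Infected erythrocytes (Dd2, 0.3% parasitemia, 2.5% hematocrit final) are added to compound in RPMI-1640/Albumax II medium, grown 72 h at 37C in low oxygen, then lysed with saponin/Triton-X containing SYBR Green and read by fluorescence.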", "values": [
      {"smiles": "O=C(Cc1cccc(Cl)c1)N1CCC2(C1)C(=O)N(CCc1ccccc1)c1ccccc12", "note": "(stereo unspecified)", "Potency": "inconclusive: 10 µM [inhibitor, single point]"},
      {"smiles": "O=C(Nc1ccc(OC(F)(F)F)cc1)C(Cc1ccccc1)NS(=O)(=O)c1cccc2nsnc12", "note": "(stereo unspecified)", "Potency": "inconclusive: 17.8 µM [inhibitor, single point]"},
      {"smiles": "O=C(O)C1=NOC2CN(CC3CC3)CC12", "note": "(stereo unspecified)", "activity, negative = inhibition": "inactive: 28.1% [at 44.1 µM]"},
      {"smiles": "CCOC(=O)c1c(NC(=O)CSc2cn(CCNC(=O)c3cccc(C(F)(F)F)c3)c3ccccc23)sc2c1CCC2", "Potency": "inconclusive: 0.0089 µM [inhibitor, full curve, poor fit]"},
      {"smiles": "CCc1nn(-c2ccccc2)c(Oc2ccc(C)cc2)c1CCC(=O)N1CCSCC1", "Potency": "inconclusive: 2.51 µM [inhibitor, full curve, poor fit]"},
      {"smiles": "CN1C(=O)C(CC(=O)N2CCN(Cc3cccc(Cl)c3)CC2)=C2CCCCC21", "note": "(stereo unspecified)", "Potency": "inconclusive: 14.1 µM [inhibitor, single point]"},
      {"smiles": "Cc1ccc(-n2nc(-c3c(C)nc4scc(CC(=O)N5CCCC5)n4c3=O)cc2C)cc1", "outcome": "inactive"},
      {"smiles": "CCCS(=O)(=O)N1CCC(Cc2nc(-c3ccncc3)n[nH]2)C1", "note": "(stereo unspecified)", "activity, negative = inhibition": "inactive: -20.1%"},
      {"smiles": "Cc1ccccc1NC(=O)c1cn(-c2ccccc2)nc1-c1ccccc1", "Potency": "inconclusive: 17.8 µM [inhibitor, single point]"},
      {"smiles": "COc1ccc(C[C@H](NC(=O)C2=C[C@@H](NS(=O)(=O)c3cccs3)[C@@H](O)[C@H](O)C2)C(N)=O)cc1", "Potency": "inconclusive: 2.24 µM [inhibitor, full curve, poor fit]"},
      {"smiles": "COc1ccc(OC)c(CN2CCN(S(=O)(=O)c3ccccc3)CC2)c1", "outcome": "inactive"},
      {"smiles": "CCCn1c2ccccc2c2cnn(CC(=O)NCCCN3CCCCC3)c(=O)c21", "activity, negative = inhibition": "inactive: -19.2%"},
      {"smiles": "CCOc1ccc(NC(=O)c2sc3nc4c(c(-c5ccccc5)c3c2N)C(=O)CC(C)(C)C4)cc1", "Potency": "inconclusive: 8.91 µM [inhibitor, partial curve]"},
      {"smiles": "CC(=O)N1CCCN(C(=O)c2c[nH]c3ncccc23)CC1", "Potency": "inconclusive: 0.631 µM [inhibitor, full curve, poor fit]"},
      {"smiles": "Cc1nn(-c2ccc(C(C)(C)C)cc2)c(C)c1[C@@H]1C=C[C@@H](NC(=O)c2ccc(N(C)C)cc2)C1", "Potency": "inconclusive: 0.891 µM [inhibitor, partial curve, poor fit]"},
      {"smiles": "CCOc1cc(C2C(C(=O)OC)=C(C)NC3=C2C(=O)c2ccccc23)ccc1OC", "note": "(stereo unspecified)", "Potency": "active: 10 µM"},
      {"smiles": "O=C1CSC2(C(=O)N(Cc3ccccc3F)c3ccccc32)N1c1cccc(C(F)(F)F)c1", "note": "(stereo unspecified)", "Potency": "active: 7.08 µM"},
      {"smiles": "O=C1CC(c2ccccc2)N(Cc2cn[nH]c2-c2ccc(F)cc2)CCCCCN1", "note": "(stereo unspecified)", "Potency": "active: 8.91 µM"},
      {"smiles": "COC[C@@H]1[C@H](C(=O)N2CCc3ccccc32)CCC(=O)N1C", "activity, negative = inhibition": "inactive: 17%"},
      {"smiles": "CCCOc1ccc(CNC(=O)c2oc3ccc4c(c3c2C)C(=O)CC(C)(CC)O4)cc1", "note": "(stereo unspecified)", "Potency": "inconclusive: 17.8 µM [inhibitor, single point]"},
      {"smiles": "COc1ccccc1CN1CCc2nc(C(C)C)nc(-c3ccc(O)cc3)c2C1", "Potency": "inconclusive: 11.2 µM [inhibitor, single point]"},
      {"smiles": "N#CC1=C2SCN(C3CCCCC3)CN2C(=O)CC1c1ccc(Br)cc1", "note": "(stereo unspecified)", "Potency": "inconclusive: 17.8 µM [inhibitor, single point]"},
      {"smiles": "COc1ccc(-c2noc(CC3CCN(C(=O)c4cc(Cl)ccc4F)CC3)n2)cc1", "Potency": "inconclusive: 17.8 µM [inhibitor, single point]"},
      {"smiles": "CCc1nncn1C1CCN(S(=O)(=O)c2cccc(Cl)c2)CC1", "Potency": "inconclusive: 17.8 µM [inhibitor, single point]"},
      {"smiles": "O=C1CCN(Cc2cccc(OC(F)(F)F)c2)CCCCCCN1", "Potency": "inconclusive: 17.8 µM [inhibitor, single point]"},
      {"smiles": "CC1CN(C(=O)C2CCN(c3nc(-c4ccccc4)nc4c3CCC4)CC2)CCN1", "note": "(stereo unspecified)", "Potency": "inconclusive: 2.82 µM [inhibitor, partial curve, poor fit]"},
      {"smiles": "COc1ccc(C2=C(C(C)=O)Sc3nnc(-c4ccc(Cl)cc4)n3N2C(C)=O)cc1OC", "Potency": "active: 1.41 µM"},
      {"smiles": "Cc1sc2cc(C(=O)N(C)C)[nH]c2c1CN1CCCCC1", "outcome": "inactive"},
      {"smiles": "O=C(Nc1c(C(=O)N2CCN(c3ccccc3F)CC2)oc2ccccc12)c1ccco1", "activity, negative = inhibition": "inactive: 3.97%"},
      {"smiles": "CC(Oc1ccccc1)C(=O)N1CCN(c2cc(C(F)(F)F)ncn2)CC1", "note": "(stereo unspecified)", "outcome": "inactive"},
      {"smiles": "CCOC(=O)c1nn(Cc2ccc(OC)cc2)c2c1CN(C(=O)c1ccc3nc[nH]c3c1)CC2", "Potency": "inconclusive: 14.1 µM [inhibitor, single point]"},
      {"smiles": "CCOC(=O)C1CCN(C(=O)c2cccc3c2CCN3C(=O)Nc2ccccc2)CC1", "Potency": "active: 11.2 µM"},
      {"smiles": "COc1cccc(CNc2ncnc3onc(C)c23)c1", "Potency": "inconclusive: 14.1 µM [inhibitor, partial curve, poor fit]"},
      {"smiles": "O=C(Cn1c(=O)n(Cc2ccco2)c(=O)c2oc3ccccc3c21)Nc1ccc(F)c(Cl)c1", "Potency": "inconclusive: 10 µM [inhibitor, single point]"},
      {"smiles": "CCOc1ccc(-c2ccnc(N3CCOC(CN)C3)n2)cc1C(=O)O", "note": "(stereo unspecified)", "activity, negative = inhibition": "inactive: -11.4%"},
      {"smiles": "CCc1nnc2c(N3CCN(c4cccc(C(F)(F)F)c4)CC3)nc3ccccc3n12", "Potency": "inconclusive: 17.8 µM [inhibitor, partial curve, poor fit]"},
      {"smiles": "Cc1ccc(S(=O)(=O)N(C)C2CCOc3ccccc32)cc1", "note": "(stereo unspecified)", "Potency": "inconclusive: 20 µM [inhibitor, single point]"},
      {"smiles": "CSc1nc(-c2ccccc2Cl)nc2c1Cc1c(CO)cnc(C)c1O2", "Potency": "inconclusive: 10 µM [inhibitor, single point]"},
      {"smiles": "COc1cc2nc(Cl)nc(N3CC4CCC(C3)N4CC(F)(F)F)c2cc1OC", "Potency": "active: 5.01 µM"},
      {"smiles": "CN1[C@@H](CCC(=O)N2CCOCC2)CNC(=O)[C@@H]2[C@H]1CCN2Cc1ccccc1", "activity, negative = inhibition": "inactive: -15% [at 44.1 µM]"},
      {"smiles": "COc1ccc(CNC(=O)Cn2c(=O)c3cccn3c3ccccc32)cc1", "activity, negative = inhibition": "inactive: 18.4%"},
      {"smiles": "CCC(CC)C(=O)NC1CCN(C(=O)N2CC3CC(C2)[C@H]2CCCC(=O)N2C3)CC1", "note": "(stereo partly specified)", "activity, negative = inhibition": "inactive: 8.47%"},
      {"smiles": "COc1ccc(NC(=O)c2nnn(CC(=O)Nc3c(C)cc(C)cc3C)c2N)cc1OC", "activity, negative = inhibition": "inactive: 33.9%"},
      {"smiles": "Cc1ccc(C)c(CN2C(=O)c3ccccc3S(=O)(=O)c3ccc(C(=O)Nc4cc(F)ccc4F)cc32)c1", "Potency": "inconclusive: 10 µM [inhibitor, single point]"},
      {"smiles": "O=C(C1CC1)N1CCC(c2nc(C3CCOCC3)no2)CC1", "Potency": "inconclusive: 0.251 µM [inhibitor, full curve]"},
      {"smiles": "Cc1onc(-c2ccccc2)c1C(=O)N1CCOCC(O)(CN2CCCC2)C1", "note": "(stereo unspecified)", "activity, negative = inhibition": "inactive: -6.8%"},
      {"smiles": "CNc1cc(C2CC(NC(=O)NCCc3ccccc3F)C2)nc(N)n1", "note": "(stereo unspecified)", "Potency": "inconclusive: 8.91 µM [inhibitor, partial curve]"},
      {"smiles": "Fc1ccc(Nc2nc(SCc3cccc(Cl)c3)nc3ccccc23)cc1", "Potency": "inconclusive: 17.8 µM [inhibitor, single point]"},
      {"smiles": "CN1c2cc(C(=O)NCc3ccc(OC(F)(F)F)cc3)ccc2C(=O)N2CCCCC21", "note": "(stereo unspecified)", "Potency": "inconclusive: 1 µM [inhibitor, partial curve, poor fit]"},
      {"smiles": "CCOc1ncccc1C(=O)N1CCc2[nH]nc(-c3cccc(F)c3)c2C1", "Potency": "inconclusive: 12.6 µM [inhibitor, single point]"},
      {"smiles": "O=C(Cc1c[nH]c2ncc(-c3ccc(F)cc3)cc12)N1CCOCC1", "Potency": "inconclusive: 14.1 µM [inhibitor, single point]"},
      {"smiles": "O=C(Nc1nc2n(n1)C(c1ccccc1)C=C(c1ccccc1)N2)c1ccccc1", "note": "(stereo unspecified)", "Potency": "inconclusive: 17.8 µM [inhibitor, single point]"},
      {"smiles": "CCN(CC)S(=O)(=O)c1ccc2c(c1)nc(CN(C)C(=O)Nc1ccc(F)cc1)n2C", "Potency": "inconclusive: 8.91 µM [inhibitor, single point]"},
      {"smiles": "Cc1cccc(N2CCN(C(=O)C3CCCN(Cc4cccnc4)CCC(=O)NCC3)CC2)c1", "note": "(stereo unspecified)", "Potency": "inconclusive: 3.98 µM [inhibitor, partial curve]"},
      {"smiles": "Cc1cc(N2CCC3(CC2)CC(c2ccccc2)C(=O)N(C2CC2)C3)nc(N)n1", "note": "(stereo unspecified)", "Potency": "inconclusive: 4.47 µM [inhibitor, partial curve]"},
      {"smiles": "CCn1nc(C)cc1S(=O)(=O)N[C@H]1[C@H]2CCO[C@H]2[C@@H]1N1CCCCC1", "Potency": "inconclusive: 11.2 µM [inhibitor, single point]"},
      {"smiles": "O=C(NCc1cccs1)c1cc(C2CC2)nc2onc(C3CCCNC3)c12", "note": "(stereo unspecified)", "Potency": "inconclusive: 15.8 µM [inhibitor, single point]"},
      {"smiles": "Cn1cc(NC(=O)CC[C@H]2NC(=O)c3ccccc3NC2=O)cn1", "activity, negative = inhibition": "inactive: -0.384%"},
      {"smiles": "O=C(COc1cccc(Cl)c1)N1CCN(CCc2ccncc2)CC1", "Potency": "inconclusive: 10 µM [inhibitor, single point]"},
      {"smiles": "CC(C)(Oc1nn(Cc2cccc(Cl)c2)c2ccccc12)C(=O)NCCN1CCOCC1", "Potency": "inconclusive: 1.41 µM [inhibitor, partial curve]"},
      {"smiles": "Cc1ccccc1C(=O)Nc1ccc([C@H]2OCC(=O)N(C)[C@@H]2CO)cc1", "activity, negative = inhibition": "inactive: 12.7% [at 44.1 µM]"},
      {"smiles": "Cn1nccc1C(=O)N1CCC(N2C(=O)C(OCC3CC3)C23CCOCC3)CC1", "note": "(stereo unspecified)", "activity, negative = inhibition": "inactive: 9.64%"},
      {"smiles": "Cc1cc(C)cc(NC(=O)CSc2nc3c([nH]c4ccccc43)c(=O)n2-c2ccc(F)cc2)c1", "Potency": "active: 10 µM"},
      {"smiles": "O=C(Cn1c(=O)oc2ccccc21)NC1CCc2nn(CC3CC3)c(=O)n2CC1", "note": "(stereo unspecified)", "Potency": "inconclusive: 3.98 µM [inhibitor, single point]"},
      {"smiles": "Cc1nnc([C@@H]2CC(F)(F)CN2C(=O)c2ccoc2C)o1", "Potency": "inconclusive: 1.58 µM [inhibitor, full curve]"},
      {"smiles": "Cc1nc2cccnc2n1CC1CCCN(S(=O)(=O)Cc2ccccc2Cl)C1", "note": "(stereo unspecified)", "Potency": "inconclusive: 6.31 µM [inhibitor, partial curve, poor fit]"}
    ]}
  ]
}
